# Measured values: the supplement of paper PMC8728848
# Some of the results follow.
# What was measured:
# Assay in all cases: glycan array binding signal (z-score within array); higher = stronger binding
# Details in all cases: glycan notation: IUPAC condensed, linker removed
# [1] = biological target: Fuc(a1-2)Gal6S(b1-3)GlcNAc
# How it was run: (§1)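 The binding signal is a Z-score computed within each array. Data were drawn from 3228 arrays in the Consortium for Functional Glycomics database, restricted to those with a known protein sequence. Scores were averaged over arrays of the same protein sequence at different concentrations or buffers, and over linkers, and negative values can be taken as non-binding.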
# [2] = biological target: Fuc(a1-2)Gal6S(b1-3)GlcNAc6S
# How it was run: as §1
# Fuc(a1-2)Gal6S(b1-4)Glc = biological target: Fuc(a1-2)Gal6S(b1-4)Glc
# How it was run: as §1
# [3] = biological target: Fuc(a1-2)Gal6S(b1-4)Glc6S
# How it was run: as §1
# Fuc(a1-2)[Gal(a1-3)]Gal = biological target: Fuc(a1-2)[Gal(a1-3)]Gal
# How it was run: as §1
# [4] = biological target: Fuc(a1-2)[Gal(a1-3)]Gal(b1-3)GalNAc
# How it was run: as §1
# [5] = biological target: Fuc(a1-2)[Gal(a1-3)]Gal(b1-3)GalNAc(b1-3)Gal(a1-4)Gal(b1-4)Glc
# How it was run: as §1
# [6] = biological target: Fuc(a1-2)[Gal(a1-3)]Gal(b1-3)GlcNAc
# How it was run: as §1
# [7] = biological target: Fuc(a1-2)[Gal(a1-3)]Gal(b1-3)GlcNAc(b1-2)Man(a1-3)[Fuc(a1-2)[Gal(a1-3)]Gal(b1-3)GlcNAc(b1-2)Man(a1-6)]Man(b1-4)GlcNAc(b1-4)GlcNAc
# How it was run: as §1
# [8] = biological target: Fuc(a1-2)[Gal(a1-3)]Gal(b1-3)GlcNAc(b1-2)Man(a1-3)[Fuc(a1-2)[Gal(a1-3)]Gal(b1-3)GlcNAc(b1-2)Man(a1-6)]Man(b1-4)GlcNAc(b1-4)[Fuc(a1-6)]GlcNAc
# How it was run: as §1
# [9] = biological target: Fuc(a1-2)[Gal(a1-3)]Gal(b1-3)GlcNAc(b1-3)GalNAc
# How it was run: as §1
# [10] = biological target: Fuc(a1-2)[Gal(a1-3)]Gal(b1-3)GlcNAc(b1-6)GalNAc
# How it was run: as §1
# [11] = biological target: Fuc(a1-2)[Gal(a1-3)]Gal(b1-4)Glc
# How it was run: as §1
# [12] = biological target: Fuc(a1-2)[Gal(a1-3)]Gal(b1-4)GlcNAc
# How it was run: as §1
# [13] = biological target: Fuc(a1-2)[Gal(a1-3)]Gal(b1-4)GlcNAc(b1-2)Man
# How it was run: as §1
# [14] = biological target: Fuc(a1-2)[Gal(a1-3)]Gal(b1-4)GlcNAc(b1-2)Man(a1-3)[Fuc(a1-2)[Gal(a1-3)]Gal(b1-4)GlcNAc(b1-2)Man(a1-6)]Man(b1-4)GlcNAc(b1-4)GlcNAc
# How it was run: as §1
# [15] = biological target: Fuc(a1-2)[Gal(a1-3)]Gal(b1-4)GlcNAc(b1-2)Man(a1-3)[Fuc(a1-2)[Gal(a1-3)]Gal(b1-4)GlcNAc(b1-2)Man(a1-6)]Man(b1-4)GlcNAc(b1-4)[Fuc(a1-6)]GlcNAc
# How it was run: as §1
# [16] = biological target: Fuc(a1-2)[Gal(a1-3)]Gal(b1-4)GlcNAc(b1-3)GalNAc
# How it was run: as §1
# [17] = biological target: Fuc(a1-2)[Gal(a1-3)]Gal(b1-4)GlcNAc(b1-3)[Fuc(a1-2)[Gal(a1-3)]Gal(b1-4)GlcNAc(b1-6)]GalNAc
# How it was run: as §1
# [18] = biological target: Fuc(a1-2)[Gal(a1-3)]Gal(b1-4)GlcNAc(b1-6)GalNAc
# How it was run: as §1
# [19] = biological target: Fuc(a1-2)[Gal(a1-3)]Gal(b1-4)[Fuc(a1-3)]Glc
# How it was run: as §1
# [20] = biological target: Fuc(a1-2)[Gal(a1-3)]Gal(b1-4)[Fuc(a1-3)]GlcNAc
# How it was run: as §1
# [21] = biological target: Fuc(a1-2)[Gal(a1-3)]Gal(b1-4)[Fuc(a1-3)]GlcNAc(b1-3)GalNAc
# How it was run: as §1
# [22] = biological target: Fuc(a1-2)[Gal(a1-4)]Gal(b1-4)GlcNAc
# How it was run: as §1
# [23] = biological target: Fuc(a1-2)[GalNAc(a1-3)]Gal
# How it was run: as §1
# [24] = biological target: Fuc(a1-2)[GalNAc(a1-3)]Gal(b1-3)GalNAc(a1-3)[Fuc(a1-2)]Gal(b1-4)GlcNAc
# How it was run: as §1
# [25] = biological target: Fuc(a1-2)[GalNAc(a1-3)]Gal(b1-3)GalNAc(b1-3)Gal(a1-4)Gal(b1-4)Glc
# How it was run: as §1
# [26] = biological target: Fuc(a1-2)[GalNAc(a1-3)]Gal(b1-3)GlcNAc
# How it was run: as §1
# [27] = biological target: Fuc(a1-2)[GalNAc(a1-3)]Gal(b1-3)GlcNAc(b1-2)Man(a1-3)[Fuc(a1-2)[GalNAc(a1-3)]Gal(b1-3)GlcNAc(b1-2)Man(a1-6)]Man(b1-4)GlcNAc(b1-4)GlcNAc
# How it was run: as §1
# [28] = biological target: Fuc(a1-2)[GalNAc(a1-3)]Gal(b1-3)GlcNAc(b1-2)Man(a1-3)[Fuc(a1-2)[GalNAc(a1-3)]Gal(b1-3)GlcNAc(b1-2)Man(a1-6)]Man(b1-4)GlcNAc(b1-4)[Fuc(a1-6)]GlcNAc
# How it was run: as §1
# [29] = biological target: Fuc(a1-2)[GalNAc(a1-3)]Gal(b1-3)GlcNAc(b1-3)GalNAc
# How it was run: as §1
# [30] = biological target: Fuc(a1-2)[GalNAc(a1-3)]Gal(b1-3)GlcNAc(b1-6)GalNAc
# How it was run: as §1
# [31] = biological target: Fuc(a1-2)[GalNAc(a1-3)]Gal(b1-4)Glc
# How it was run: as §1
# [32] = biological target: Fuc(a1-2)[GalNAc(a1-3)]Gal(b1-4)GlcNAc
# How it was run: as §1
# [33] = biological target: Fuc(a1-2)[GalNAc(a1-3)]Gal(b1-4)GlcNAc(b1-2)Man
# How it was run: as §1
# [34] = biological target: Fuc(a1-2)[GalNAc(a1-3)]Gal(b1-4)GlcNAc(b1-2)Man(a1-3)[Fuc(a1-2)[GalNAc(a1-3)]Gal(b1-4)GlcNAc(b1-2)Man(a1-6)]Man(b1-4)GlcNAc(b1-4)GlcNAc
# How it was run: as §1
# [35] = biological target: Fuc(a1-2)[GalNAc(a1-3)]Gal(b1-4)GlcNAc(b1-2)Man(a1-3)[Fuc(a1-2)[GalNAc(a1-3)]Gal(b1-4)GlcNAc(b1-2)Man(a1-6)]Man(b1-4)GlcNAc(b1-4)[Fuc(a1-6)]GlcNAc
# How it was run: as §1
# [36] = biological target: Fuc(a1-2)[GalNAc(a1-3)]Gal(b1-4)GlcNAc(b1-3)Gal(b1-4)GlcNAc
# How it was run: as §1
# [37] = biological target: Fuc(a1-2)[GalNAc(a1-3)]Gal(b1-4)GlcNAc(b1-3)Gal(b1-4)GlcNAc(b1-3)Gal(b1-4)GlcNAc
# How it was run: as §1
# [38] = biological target: Fuc(a1-2)[GalNAc(a1-3)]Gal(b1-4)GlcNAc(b1-3)GalNAc
# How it was run: as §1
# [39] = biological target: Fuc(a1-2)[GalNAc(a1-3)]Gal(b1-4)GlcNAc(b1-3)[Fuc(a1-2)[GalNAc(a1-3)]Gal(b1-4)GlcNAc(b1-6)]GalNAc
# How it was run: as §1
# [40] = biological target: Fuc(a1-2)[GalNAc(a1-3)]Gal(b1-4)GlcNAc(b1-6)GalNAc
# How it was run: as §1
# [41] = biological target: Fuc(a1-2)[GalNAc(a1-3)]Gal(b1-4)[Fuc(a1-3)]GlcNAc
# How it was run: as §1
# [42] = biological target: Fuc(a1-2)[GalNAc(a1-3)]Gal(b1-4)[Fuc(a1-3)]GlcNAc(b1-3)GalNAc
# How it was run: as §1
# [43] = biological target: Fuc(a1-2)[GalNAc(a1-4)]Gal(b1-4)GlcNAc
# How it was run: as §1
binder,measurement,setting,value
"CGL (Crenomytilus grayanus), H2FH31 (protein) MTTFLIKHKASGKFLHPYGGSSNPANNTKLVLHSDIHERMYFQFDVVDERWGYIKHVASGKIVHPYGGQANPPNETNMVLHQDRHDRALFAMDFFNDNIMHKGGKYIHPKGGSPNPPNNTETVIHGDKHAAMEFIFVSPKNKDKRVLVYA",glycan array binding signal (z-score),[1],-0.334
same,glycan array binding signal (z-score),[2],-0.374
same,glycan array binding signal (z-score),Fuc(a1-2)Gal6S(b1-4)Glc,-0.392
same,glycan array binding signal (z-score),[3],-0.4
same,glycan array binding signal (z-score),Fuc(a1-2)[Gal(a1-3)]Gal,-0.126
same,glycan array binding signal (z-score),[4],-0.282
same,glycan array binding signal (z-score),[5],-0.379
same,glycan array binding signal (z-score),[6],-0.362
same,glycan array binding signal (z-score),[7],-0.328
same,glycan array binding signal (z-score),[8],-0.386
same,glycan array binding signal (z-score),[9],-0.364
same,glycan array binding signal (z-score),[10],-0.361
same,glycan array binding signal (z-score),[11],-0.298
same,glycan array binding signal (z-score),[12],-0.063
same,glycan array binding signal (z-score),[13],-0.384
same,glycan array binding signal (z-score),[14],-0.308
same,glycan array binding signal (z-score),[15],-0.343
same,glycan array binding signal (z-score),[16],-0.376
same,glycan array binding signal (z-score),[17],-0.269
same,glycan array binding signal (z-score),[18],-0.315
same,glycan array binding signal (z-score),[19],-0.375
same,glycan array binding signal (z-score),[20],-0.338
same,glycan array binding signal (z-score),[21],-0.441
same,glycan array binding signal (z-score),[22],4.38
same,glycan array binding signal (z-score),[23],-0.106
same,glycan array binding signal (z-score),[24],-0.359
same,glycan array binding signal (z-score),[25],-0.338
same,glycan array binding signal (z-score),[26],-0.318
same,glycan array binding signal (z-score),[27],-0.367
same,glycan array binding signal (z-score),[28],-0.343
same,glycan array binding signal (z-score),[29],-0.28
same,glycan array binding signal (z-score),[30],-0.464
same,glycan array binding signal (z-score),[31],-0.38
same,glycan array binding signal (z-score),[32],-0.37
same,glycan array binding signal (z-score),[33],-0.438
same,glycan array binding signal (z-score),[34],-0.344
same,glycan array binding signal (z-score),[35],-0.23
same,glycan array binding signal (z-score),[36],-0.355
same,glycan array binding signal (z-score),[37],-0.18
same,glycan array binding signal (z-score),[38],-0.417
same,glycan array binding signal (z-score),[39],-0.249
same,glycan array binding signal (z-score),[40],-0.096
same,glycan array binding signal (z-score),[41],-0.326
same,glycan array binding signal (z-score),[42],-0.217
same,glycan array binding signal (z-score),[43],1.82
